According to the supplement of paper PMC12217912:
This is one part of the list. The full chains were built here from the parent and the listed change. Inactive controls read about 0.05.

B1: TEV protease; numbered along this chain (parent)
chain: MGESLFKGPRDYNPISSSICHLTNESDGHTTSLYGIGFGPFIITNKHLFRRNNGTLVVQSLHGVFKVKDTTTLQQHLVDGRDMIIIRMPKDFPPFPQKLKFREPQREERICLVTTNFQTKSMSSMVSDTSCTFPSGDGIFWKHWIQTKDGQCGSPLVSTRDGFIVGIHSASNFTNTNNYFTSVPKNFMELLTNQEAQQWVSGWRLNADSVLWGGHKVFMVKPEEPFQPVKEATQL

Variants of: B1
Test: raw area under fraction-flipped curve 0-4 h after induction (AUC4h, not background-subtracted), DNA-recorder readout of cleavage of the substrate (dimensionless); higher = more cleavage of the substrate by the protease variant
Details: temperature: 34 °C; time window: 0-4 h after rhamnose induction
Description: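 In vivo DNA recorder in E. coli TOP10(DE3) ΔrhaA at 34 °C. Each TEVp single-site mutant (parent TEVp 0) is paired with a single-site variant of the 7-mer TEVs (canonical ENLYFQ|S). The substrate sits between flexible linkers in a Bxb1-sfGFP-TEVs-SsrA fusion, so cleavage stabilises Bxb1 and speeds flipping of a recombination array, read by NGS. The value is the raw area under the fraction-flipped curve over 0-4 h after rhamnose induction (AUC4h), with ≥20 reads per time point. It is not background-subtracted; inactive controls average about 0.047.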
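Further: Bxb1 expression induced with 0.2% (w/v) L-rhamnose at OD600 near 0.5, cultures sampled hourly, flipped fraction per protease–substrate barcode pair counted by paired-end Illumina sequencing.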

| Variant | area with substrate ECLYFQS | area with substrate EGLYFQS | area with substrate ESLYFQS | area with substrate EILYFQS | area with substrate ELLYFQS | area with substrate EHLYFQS | area with substrate EKLYFQS | area with substrate EMLYFQS | area with substrate EPLYFQS | area with substrate ERLYFQS |
| --- | --- | --- | --- | --- | --- | --- | --- | --- | --- | --- |
| Q97F | 0.102 | 0.0959 | 0.102 | – | – | – | – | – | – | – |
| Q97K | 0.103 | – | 0.11 | 0.0828 | 0.0923 | – | – | – | – | – |
| N206E | 0.0901 | 0.0806 | – | 0.0992 | 0.0874 | 0.139 | 0.0997 | 0.0846 | 0.0997 | 0.104 |
| M219P | 0.0518 | 0.06 | 0.0703 | 0.0598 | 0.0689 | 0.0849 | 0.0732 | 0.0635 | 0.0868 | 0.069 |
| M219K | 0.0733 | 0.0651 | 0.0687 | 0.0765 | 0.0539 | 0.0624 | – | – | 0.084 | 0.0577 |
| F180Q | 0.0714 | – | 0.0659 | – | 0.0527 | – | – | – | – | – |
| T174V | 0.0841 | 0.0642 | 0.0672 | 0.0922 | 0.0511 | – | – | – | 0.0897 | – |
| L205A | 0.0629 | – | 0.0885 | – | – | – | – | – | – | 0.0751 |
| I86G | 0.0485 | – | 0.0393 | 0.0347 | 0.0315 | – | – | – | – | – |
| V229P | 0.127 | 0.11 | 0.123 | 0.123 | – | – | – | 0.133 | 0.139 | 0.0978 |
| T70V | 0.0758 | – | 0.0699 | 0.0725 | – | – | 0.0809 | 0.0696 | 0.0849 | 0.0812 |
| T119P | 0.134 | – | 0.104 | 0.0795 | – | – | 0.104 | – | – | – |
| G35N | 0.0387 | 0.0341 | – | – | – | 0.0543 | 0.0156 | – | – | – |
| W199V | 0.113 | 0.0924 | 0.0718 | – | 0.0532 | 0.0708 | – | 0.0696 | – | 0.0619 |
| Q151R | 0.0876 | – | 0.0968 | – | 0.0673 | 0.128 | 0.092 | 0.111 | 0.134 | 0.0821 |
| L211S | 0.139 | – | 0.118 | 0.148 | – | – | – | – | – | 0.143 |
| N193R | 0.0856 | – | – | – | – | – | 0.109 | 0.0982 | 0.0967 | 0.0889 |
| G214Q | 0.0728 | – | – | – | – | 0.0994 | – | – | – | – |
| P9H | 0.116 | – | 0.104 | – | 0.106 | – | – | 0.117 | – | – |

| Variant | area with substrate ECLYFQS | area with substrate EGLYFQS | area with substrate ESLYFQS | area with substrate EILYFQS | area with substrate ELLYFQS | area with substrate EHLYFQS | area with substrate EKLYFQS | area with substrate EMLYFQS | area with substrate EPLYFQS | area with substrate ERLYFQS |
| --- | --- | --- | --- | --- | --- | --- | --- | --- | --- | --- |
| K216W | 0.0778 | 0.0549 | 0.0764 | 0.0725 | 0.074 | 0.0853 | 0.0776 | 0.0664 | – | 0.113 |
| Q227R | 0.0739 | – | 0.0937 | – | – | 0.0857 | – | 0.122 | 0.124 | – |
| Q227G | 0.105 | – | 0.111 | 0.104 | – | – | 0.105 | – | 0.135 | 0.108 |
| Q227Y | 0.115 | – | 0.0957 | – | 0.0897 | – | 0.0941 | – | 0.11 | 0.09 |
| Y34N | 0.094 | – | 0.0833 | 0.0802 | 0.074 | – | 0.0818 | 0.0877 | – | 0.0381 |
| E3I | – | – | 0.141 | – | 0.0885 | 0.144 | 0.116 | 0.146 | 0.159 | – |
| P228C | 0.109 | 0.108 | 0.101 | 0.0652 | – | 0.113 | 0.108 | – | 0.117 | 0.118 |
| P228A | 0.0713 | 0.111 | 0.105 | 0.093 | – | 0.0917 | 0.107 | 0.13 | 0.0802 | 0.0902 |
| P228E | 0.0895 | – | – | 0.117 | 0.109 | – | 0.108 | 0.0424 | – | 0.109 |
| L5Y | – | 0.0908 | 0.138 | 0.114 | – | – | 0.172 | 0.141 | – | 0.11 |
| S154Q | 0.0558 | – | 0.105 | 0.0695 | 0.095 | 0.0921 | – | 0.121 | – | – |
| F41K | 0.0445 | 0.058 | 0.0667 | 0.056 | 0.0461 | – | – | – | 0.0645 | 0.0707 |
| Y179W | 0.0541 | – | 0.0701 | 0.0672 | – | – | – | – | – | – |
| K148D | 0.0844 | – | 0.0842 | 0.069 | – | – | 0.0749 | 0.105 | 0.108 | – |
| Q234C | 0.0883 | 0.0473 | 0.095 | 0.108 | 0.0796 | – | 0.0971 | 0.0993 | – | 0.115 |
| Q234M | 0.0716 | – | 0.107 | 0.0889 | – | 0.139 | 0.0901 | 0.0869 | – | – |
| E189S | 0.0927 | – | 0.0822 | 0.126 | – | 0.0963 | – | – | 0.091 | – |
| S201Y | 0.0873 | 0.0807 | 0.158 | – | – | 0.0888 | 0.105 | 0.153 | – | 0.0858 |

Same assay, conditions: temperature: 34 °C; time window: 0-4 h after rhamnose induction

| Variant | area with substrate ETLYFQS | area with substrate EVLYFQS | area with substrate EWLYFQS | area with substrate EALYFQS | area with substrate EDLYFQS | area with substrate EQLYFQS | area with substrate EELYFQS | area with substrate EYLYFQS | area with substrate EFLYFQS |
| --- | --- | --- | --- | --- | --- | --- | --- | --- | --- |
| N206E | 0.124 | 0.115 | 0.118 | – | – | – | – | – | – |
| M219P | 0.0844 | 0.0661 | 0.0845 | 0.095 | 0.0989 | 0.057 | – | – | – |
| M219K | – | 0.0663 | 0.0841 | 0.0665 | 0.0704 | 0.0556 | 0.0741 | – | – |
| T174V | 0.107 | – | 0.0831 | – | – | 0.085 | – | – | – |
| L205A | 0.0704 | 0.082 | – | – | – | 0.0762 | – | 0.0861 | – |
| I86G | – | – | – | – | – | 0.0385 | – | – | – |
| V229P | 0.163 | 0.106 | 0.101 | 0.147 | 0.108 | 0.125 | – | 0.11 | 0.0886 |
| T70V | 0.0761 | 0.0621 | – | – | – | – | – | 0.095 | 0.0814 |
| T119P | – | 0.111 | – | – | – | – | – | – | – |
| G35N | – | 0.0332 | – | – | – | – | – | – | – |
| W199V | – | 0.0595 | 0.0582 | – | – | 0.0653 | – | 0.0605 | – |
| Q151R | – | 0.0883 | 0.0422 | – | – | – | – | 0.123 | – |
| L211S | 0.154 | – | – | – | – | 0.157 | – | – | – |
| N193R | – | – | – | – | – | 0.1 | – | – | 0.0737 |
| G214Q | – | 0.0759 | – | – | – | – | – | – | 0.0985 |
| P9H | – | – | 0.101 | – | – | – | – | – | – |
| K216W | 0.0967 | 0.084 | – | – | 0.076 | 0.101 | 0.0833 | – | 0.0759 |

| Variant | area with substrate ETLYFQS | area with substrate EVLYFQS | area with substrate EWLYFQS | area with substrate EALYFQS | area with substrate EDLYFQS | area with substrate EQLYFQS | area with substrate EELYFQS | area with substrate EYLYFQS | area with substrate EFLYFQS |
| --- | --- | --- | --- | --- | --- | --- | --- | --- | --- |
| Q227R | – | 0.0917 | – | 0.121 | – | 0.111 | – | 0.0839 | – |
| Q227G | – | – | – | – | – | – | – | 0.135 | 0.106 |
| Q227Y | 0.115 | 0.122 | 0.0771 | 0.108 | 0.105 | – | – | – | – |
| Y34N | – | – | – | – | – | – | – | 0.0935 | – |
| E3I | 0.141 | 0.123 | – | – | 0.115 | – | 0.165 | – | – |
| P228C | – | 0.0863 | 0.0864 | 0.105 | 0.0889 | 0.137 | 0.117 | – | – |
| P228A | – | – | – | 0.137 | 0.117 | 0.0766 | 0.109 | – | – |
| P228E | – | – | – | 0.122 | – | – | 0.0925 | 0.111 | – |
| L5Y | – | – | 0.0951 | – | 0.141 | 0.125 | – | 0.107 | – |
| S154Q | – | 0.102 | – | – | – | 0.0971 | – | – | – |
| F41K | – | 0.0673 | – | – | – | 0.0663 | – | – | – |
| Y179W | 0.0605 | 0.0513 | – | – | – | – | – | – | – |
| K148D | – | – | – | – | – | 0.0794 | – | – | – |
| Q234C | 0.11 | 0.0907 | 0.122 | 0.0819 | 0.12 | 0.102 | 0.104 | – | 0.102 |
| Q234M | – | 0.0874 | 0.0893 | 0.109 | – | – | 0.119 | 0.102 | – |
| E189S | – | 0.0683 | – | – | – | 0.0991 | – | – | – |
| S201Y | – | 0.0909 | 0.0845 | – | – | – | – | 0.066 | – |
